Screen size: about 50,000 compounds; about 800 (1.6%) showed an effect of 50% or more. Some of the results follow.
Biological target: Bcl-2-like protein 10 (Homo sapiens) (UniProt Q9HD36)
Assay: TR3 peptide-Bcl-B binding displacers, biochemical primary FP assay, phenotype converters (AID 1240);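 also: 0% = Bcl-B with tracer peptide and DMSO and 100% = tracer peptide lacking Bcl-B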
Settings: GST-Bcl-B / FITC-TR3 peptide fluorescence polarization; stronger effect = higher value; compound at 3.75 mg/L

Chain of UniProt Q9HD36 (Q9HD36 whole entry, looked up): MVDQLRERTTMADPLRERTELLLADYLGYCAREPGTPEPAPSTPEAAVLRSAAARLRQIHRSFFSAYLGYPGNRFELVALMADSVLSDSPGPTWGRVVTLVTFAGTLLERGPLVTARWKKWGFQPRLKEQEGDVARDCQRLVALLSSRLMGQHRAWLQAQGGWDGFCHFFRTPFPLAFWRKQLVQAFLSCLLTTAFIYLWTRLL

Row | Compound | displacement [%]
1 | COc1cc(/C=N\NC(=O)CNc2ccc(C)cc2)cc(Br)c1O | 11.8
2 | Cc1[nH]c2ccccc2c1C=Nc1cccc([N+](=O)[O-])c1C | 9.8
3 | Cc1ccc(C(=O)Nc2cccc(NC(=O)COc3ccc(Br)cc3)c2)cc1 | 0.9
4 | Cc1cccc(CN2CCN(S(C)(=O)=O)CC2)c1 | 9.4
5 | COc1cc2cc(C(N)=O)c(N)nc2cc1OC | 9
6 | CN(C)S(=O)(=O)c1cc(S(=O)(=O)N(C)C)c2cccc3c2c1NC3=O | 0.1
7 | O=C(O)c1ccccc1SC1CC(=O)N(c2ccc([N+](=O)[O-])cc2)C1=O (stereo unspecified) | 2.5
8 | CC(C)=CCCC1=CCC2(C)C(=O)NNC(=O)C2C1 (stereo unspecified) | 7.6
9 | Cc1ccc(C(=O)Nc2nc3ccccc3n2Cc2ccccc2Cl)cc1 | 9.4
10 | O=C1/C(=C\c2cccc(C(F)(F)F)c2)SC(=S)N1c1cccc(Cl)c1 | 14.5
11 | O=C(c1sc2ccccc2c1Cl)N1CCN(c2cccc(C(F)(F)F)c2)CC1 | -9.9
12 | Cc1ccc2c(C)nc(Nc3nc(-c4ccccc4)cc(=O)[nH]3)nc2c1 | -3.6
13 | O=C(CSc1ccc(Cl)cc1Cl)Nc1cc(Cl)ccc1Cl | 10
14 | COc1ccc(OC)c(NC(=O)C(=O)NCc2ccncc2)c1 | 13.6
15 | O=C(/C=C/c1ccc(-c2ccccc2[N+](=O)[O-])o1)Nc1ccc(O)c(-c2nc3ccccc3o2)c1 | -4.1
16 | CCC/C(C(=O)OCC)=C(/C)NCCN/C(C)=C(\CCC)C(=O)OCC | 11
17 | Cc1c(NC(=O)c2cccc3ccccc23)c(=O)n(-c2ccccc2)n1C | 1.8
18 | Cc1ccc(C(=O)Nc2cc(-c3cccc(C)c3)[nH]n2)cc1 | 6.2
19 | CCCOc1ccc(C(=O)Nc2cccc(OC)c2)cc1 | 16.1
20 | CC(=C(C#N)C#N)c1ccc2c(c1)OCO2 | 14.6
21 | O=Cc1ccc(-c2nc3c4ccccc4ccn3c2C=O)o1 | 3.7
22 | C#CCSc1nncn1C(=O)/C=C/c1ccccc1 | -9.6
23 | CC(=O)Oc1ccc2nc(-c3ccc(C)c([N+](=O)[O-])c3)oc(=O)c2c1 | 7.1
24 | CCSC1(SCC)N=C(N)C2(C#N)C(c3ccccc3)NC(C)=CC12C#N (stereo unspecified) | -3.3

Row | Compound | displacement [%]
25 | O=C(NC1CC1)c1ccc(C2SCC(=O)N2Cc2ccccc2)cc1 (stereo unspecified) | 5.1
26 | C[n+]1cccc(C(=O)NCCOC(=O)c2ccc(F)cc2)c1 | 2.6
27 | CCCc1ccc(OCC(=O)Nc2cccc(F)c2)cc1 | -4.4
28 | COc1cc(OC)cc(C(=O)N2CCN(C(=O)COc3ccc(Cl)cc3)CC2)c1 | -23.1
29 | O=C(N/N=C/c1c2ccccc2cc2ccccc12)c1cccc([N+](=O)[O-])c1 | 11
30 | COc1cccc(NC(=O)CN(c2ccc(OC)cc2OC)S(=O)(=O)c2ccc(C)cc2)c1 | 6.2
31 | NC(=O)c1ccc(NC(=O)CCC(=O)O)cc1 | 4.8
32 | CC(C)Cn1c(CCN2C(=O)c3ccccc3C2=O)nc2ccccc2c1=O | 7.6
33 | Cc1cccc(OCC(=O)Nc2ccccc2CO)c1 | -4.7
34 | COc1cccc(Nc2nc(C)c([N+](=O)[O-])c(Nc3cccc(OC)c3)n2)c1 | 6
35 | CC1=NN(C(=O)c2cccc(C)c2O)C(O)(c2ccc(Cl)cc2)C1 (stereo unspecified) | -2
36 | COc1ccc([N+](=O)[O-])cc1NC(=O)/C=C/c1ccccc1 | 7.1
37 | O=C(O)c1ccc(-c2cc([N+](=O)[O-])ccc2Cl)o1 | 16.9
38 | Cc1nnc(NC(=O)c2cc(-c3ccc(Cl)cc3)nc3ccccc23)s1 | 26.1
39 | COc1ccc(CCNC(=O)/C=C/c2ccc(C)cc2)cc1 | 7.5
40 | Cn1c2c(c(=O)n(C)c1=O)C(c1ccc(Br)cc1)C1=C(N2)c2ccccc2C1=O (stereo unspecified) | -10.4
41 | COc1ccc(C(=O)Nc2ccc(S(N)(=O)=O)cc2)cc1I | -4.5
42 | Cc1ccc(-c2ccc(/C=C3\SC(=S)NC3=O)o2)c([N+](=O)[O-])c1 | 11.2
43 | O=C(NCCCNC(=O)c1cccc(F)c1)c1cccc(F)c1 | 3.2
44 | COC(=O)CN1C(c2ccccc2OC)Nc2ccc(Br)cc2C1c1ccccc1 (stereo unspecified) | 6.9
45 | COc1ccc(CCNC(=O)COc2ccc(Cl)cc2Br)cc1OC | -3.1
46 | CN(C)C(=O)COc1ccc2ccc(=O)oc2c1 | 11
47 | O=C(Nc1cc(-c2nc3ccccc3s2)ccc1Cl)c1cc(I)ccc1Cl | 13.7
48 | Cc1cc(C)cc(NC(=O)Cc2ccc(Br)cc2)c1 | 17.2

Row | Compound | displacement [%]
49 | Cc1cc(NC(=O)CSc2nc3ccccc3[nH]2)no1 | 14.3
50 | O=C(/C=C/c1ccccc1)NCC1(c2ccccc2)CCOCC1 | -11
51 | COc1cccc2cc(C(=O)OCC(=O)c3ccc([N+](=O)[O-])cc3)c(=O)oc12 | 9.7
52 | COc1cc(/C=C2\C(=O)N(c3cccc(C(=O)O)c3)N=C2C)ccc1O | -114
53 | CCc1nc(SCc2ccc(OC)cc2)n[nH]1 | -12.6
54 | CCN(CC)c1ccc(NC(=O)c2ccc(-c3cccc(Cl)c3)o2)cc1 | 11.8
55 | O=C(NN=C1CCCC1)c1cccnc1 | 6.8
56 | O=C1NN(c2ccccc2)C(=O)C2C3c4ccccc4C(c4ccccc43)C12 (stereo unspecified) | -1.4
57 | Cc1cccnc1NC(=O)c1ccccc1NC(=O)c1ccccc1 | -10.3
58 | Cc1cc(/C=C2\C(=O)NC(=O)N(c3ccc4c(c3)OCO4)C2=O)c(C)n1-c1cccc([N+](=O)[O-])c1 | 52.7
59 | COc1cc(Br)c(/C=C(\C#N)C(=O)NCc2ccco2)cc1OC | 28.8
60 | CCc1cccc(C)c1NC(=O)COc1ccc(OC)cc1 | -1.9
61 | Cc1cc(C)cc(NC(=O)/C=C/C(=O)O)c1 | -2.2
62 | O=C(/C=C/c1ccc(Cl)cc1)Nc1ccc(N2CCOCC2)cc1 | 3.8
63 | COc1ccc2oc(-c3ccc(Cl)cc3)cc(=O)c2c1 | 6.8
64 | CC(CC(=O)c1cccs1)CC(=O)c1cccs1 | -5.4
65 | O=C1C(Cl)=C(N2CCN(c3ccccc3)CC2)C(=O)N1c1ccccc1 | 13.7
66 | CCCCOC(=O)c1ccc(NC(=O)c2cccc([N+](=O)[O-])c2)cc1 | -2.4
67 | CC1=C(C(=O)OC2CCCCC2)C(c2cc3c(cc2[N+](=O)[O-])OCO3)C2=C(CC(C)(C)CC2=O)N1 (stereo unspecified) | -0.2
68 | O=C(Oc1ccc(Cl)cc1)c1cccs1 | -8.9
69 | COc1ccc(C2SCc3cc(C)c(C)cc3CS2)cc1OC | -5.8
70 | CN(C)c1nc(Nc2nc3ccccc3[nH]2)nc(N(C)C)n1 | 0.2
71 | Cc1ccc(CSc2nnnn2-c2ccccc2)cc1 | -5.2
